Data from the CheMixHub viscosity set.
± gives the uncertainty stated by the source. Not every entry of the source has a single result; some have several. This list holds those alone. The source may hold further records. The records of an entry are repeats (runs, samples, wells, individuals or studies). A tag in brackets gives the origin of a value. A, B and so on number the origins entry by entry.

| Structure (SMILES) | viscosity (298.15 K, 101 kPa) | viscosity (303.15 K, 101 kPa) | viscosity (308.15 K, 101 kPa) | viscosity (313.15 K, 101 kPa) | viscosity (298.15 K, 101.33 kPa) |
| --- | --- | --- | --- | --- | --- |
| C[N+](=O)[O-] | 0.6313 ± 0.064 mPa·s [study A] and 0.637 ± 0.026 mPa·s [study B] and 0.622 ± 0.006 mPa·s [study C] and 0.6469 ± 0.0072 mPa·s [study D] and 0.616 ± 0.006 mPa·s [study E] and 0.619 ± 0.006 mPa·s [study F] | 0.6062 ± 0.016 mPa·s [study A] and 0.6158 ± 0.0071 mPa·s [study B] and 0.584 ± 0.006 mPa·s [study C] and 0.594 ± 0.007 mPa·s [study D] | 0.5717 ± 0.015 mPa·s [study A] and 0.5833 ± 0.0069 mPa·s [study B] and 0.561 ± 0.006 mPa·s [study C] and 0.563 ± 0.006 mPa·s [study D] and 0.564 ± 0.007 mPa·s [study E] | 0.5266 ± 0.013 mPa·s [study A] and 0.5537 ± 0.0068 mPa·s [study B] and 0.545 ± 0.006 mPa·s [study C] and 0.536 ± 0.007 mPa·s [study D] |  |
| CCCCOCCOCCOCCO |  |  |  |  | 9.109 ± 0.11 mPa·s and 0.846 ± 0.008 mPa·s |
| CC(=O)c1ccc(C)cc1 |  |  | 1.592 ± 0.049 mPa·s [study A] and 1.536 ± 0.014 mPa·s [study B] and 1.536 ± 0.021 mPa·s [study C] and 1.536 ± 0.02 mPa·s [study D] |  |  |
| Cc1cccc(O)c1 |  | 10.21 ± 0.26 mPa·s [study A] and 9.47 ± 0.13 mPa·s [study B] and 9.802 ± 0.081 mPa·s [study C] and 8.929 ± 0.062 mPa·s [study D] |  |  |  |
